Data published in publication PMC4336329 (PLoS ONE, 2015).
The campaign covered roughly 310,000 compounds. About 2,200 (0.71%) showed an effect of 50% or more. Effects have a minus sign here. The list shows a part of the results.

molecular target: human ether-à-go-go-related gene (hERG) potassium channel (human, UniProt Q12809); assay: primary screen, population patch clamp on CHO cells stably expressing hERG
Sequence (Q12809 whole entry, looked up): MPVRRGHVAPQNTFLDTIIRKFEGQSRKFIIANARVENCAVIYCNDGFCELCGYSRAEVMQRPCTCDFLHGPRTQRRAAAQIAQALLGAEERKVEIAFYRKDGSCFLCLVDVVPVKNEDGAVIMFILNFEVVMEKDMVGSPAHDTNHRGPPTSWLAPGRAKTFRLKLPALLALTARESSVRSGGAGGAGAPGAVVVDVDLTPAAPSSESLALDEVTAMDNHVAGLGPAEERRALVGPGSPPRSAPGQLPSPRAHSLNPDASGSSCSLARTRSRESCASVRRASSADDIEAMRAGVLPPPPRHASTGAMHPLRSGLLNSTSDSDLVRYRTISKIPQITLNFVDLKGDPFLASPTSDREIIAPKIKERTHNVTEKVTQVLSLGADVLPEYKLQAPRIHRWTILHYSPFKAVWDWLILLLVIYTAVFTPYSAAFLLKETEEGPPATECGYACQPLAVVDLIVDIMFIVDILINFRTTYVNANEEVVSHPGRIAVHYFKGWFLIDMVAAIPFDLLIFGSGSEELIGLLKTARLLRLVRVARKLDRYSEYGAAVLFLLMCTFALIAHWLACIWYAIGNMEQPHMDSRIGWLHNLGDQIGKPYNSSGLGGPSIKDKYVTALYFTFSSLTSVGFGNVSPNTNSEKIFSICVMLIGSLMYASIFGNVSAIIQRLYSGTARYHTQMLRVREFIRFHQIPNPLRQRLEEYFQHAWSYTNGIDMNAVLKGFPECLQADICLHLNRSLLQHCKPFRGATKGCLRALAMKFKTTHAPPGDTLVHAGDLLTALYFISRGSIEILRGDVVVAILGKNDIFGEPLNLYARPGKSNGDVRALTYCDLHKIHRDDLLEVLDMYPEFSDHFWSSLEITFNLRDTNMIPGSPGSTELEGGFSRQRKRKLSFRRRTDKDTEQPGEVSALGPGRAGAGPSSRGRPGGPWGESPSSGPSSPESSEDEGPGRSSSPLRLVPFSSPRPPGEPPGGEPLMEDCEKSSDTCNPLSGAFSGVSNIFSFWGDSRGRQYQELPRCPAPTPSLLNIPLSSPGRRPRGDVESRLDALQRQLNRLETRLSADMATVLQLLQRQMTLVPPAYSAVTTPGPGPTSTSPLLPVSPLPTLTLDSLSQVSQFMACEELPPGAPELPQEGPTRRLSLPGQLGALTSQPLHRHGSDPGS

Row | Compound | hERG current change (%, negative = inhibition) at 1uM [%]
1 | Cc1cc(OC(C)C(=O)NC(Cc2c[nH]c3ccc(O)cc23)C(=O)O)c2c(C)cc(=O)oc2c1 (centres unmarked) | -0.679
2 | COc1ccc(-c2noc(C3CCCN(C(=O)CCc4ccccc4)C3)n2)cc1 (centres unmarked) | -9.88
3 | CC(C)CCn1c(SCC(=O)OCn2nnc3ccccc3c2=O)nc2ccccc2c1=O | 2.3
4 | Cc1c(C(=O)OCC(=O)Nc2ccc(C(=O)N(C)C)cc2)oc2ccccc12 | 4.41
5 | CCOc1ccc(OCC)c(S(=O)(=O)n2ccnc2C)c1 | 8.83
6 | CCC1(C)Cc2ccccc2-c2[nH]c(=S)[nH]c(=O)c21 (centres unmarked) | 15.9
7 | COc1cccc(N2CCN(C(=O)c3ccc(N4C(=O)NC5CC4(C)Oc4ccccc45)cc3)CC2)c1 (centres unmarked) | 12.7
8 | COc1ccccc1C(=O)Nc1ccc2c(c1)CCCN2C(=O)c1ccccc1 | 2.02
9 | Cc1cc(NC(=O)CSc2nnc(-c3ccccc3Cl)o2)no1 | 16.1
10 | Cc1ccc(-c2nc(C#N)c(NCc3cccc4c3OCO4)o2)cc1 | -4.65
11 | Cc1[nH]n(-c2ccccc2)c(=O)c1C(=O)c1ccccc1 | 12.7
12 | COc1ccc(C(=O)C2CCCN(C(=O)c3ccc(OC)o3)C2)c(C)c1 (centres unmarked) | -0.475
13 | Cc1cc2ccccc2c(=O)n1CC(=O)NCCC1=CCCCC1 | 9.27
14 | CCOC(=O)c1c(NC(=O)C2CCCO2)sc(C(N)=O)c1C (centres unmarked) | 6.24
15 | Cc1nn(Cc2ccc(F)cc2)c(C)c1NC(=O)c1cccnc1Cl | 17.6
16 | CC(C)(C)N(NC(=O)c1ccccc1)C(=O)c1ccccc1 | -4.16
17 | O=C(CN1CCOCC1)Nc1ccccc1Cl | 1.49
18 | CCCc1nc2ccccc2c(=O)n1/N=C/c1ccc(O)cc1 | 11.1
19 | O=C(C1CCC(=O)N1C1CCCCC1)N1CCN(c2ccc(F)cc2)CC1 (centres unmarked) | 6.59

Row | Compound | hERG current change (%, negative = inhibition) at 1uM [%]
20 | Nc1nc2ccccc2[nH]1 | 15.5
21 | CCOc1cc(N2CCOCC2)c(OCC)cc1NC(=O)CN1CCCC(C)C1 (centres unmarked) | -2.17
22 | O=C(C1=C(O)C(=O)N(c2nc3ccc(Cl)cc3s2)C1c1ccco1)c1ccco1 (centres unmarked) | -0.241
23 | O=c1[nH]ncn2cccc12 | 12
24 | COc1cccc(C(=O)C2CCCN(Cc3ccc4nsnc4c3)C2)c1 (centres unmarked) | 5.66
25 | O=C(COc1ccccc1Cl)Nc1cc(NC(=O)COc2ccccc2Cl)cc(C(=O)O)c1 | 1.69
26 | Nc1nc2cc(S(=O)(=O)NC3=NCCCCC3)ccc2s1 | 10.1
27 | COc1ccc(-n2c(COc3cccc(C)c3)n[nH]c2=S)cc1 | 16.8
28 | Cc1ccc2nc(C)c(CN3CCN(c4ccc([N+](=O)[O-])cc4Cl)CC3)n2c1 | 0.853
29 | Cc1cccc(N(CC(=O)NC(C)(C)C)C(=O)CNC(=O)c2cccs2)c1C | 7.7
30 | Nc1cc(=O)[nH]c(SCC(=O)c2ccc(O)cc2O)n1 | 9.82
31 | Cc1ccc(Cn2c(NC(=O)c3ccco3)nc3ccccc32)cc1 | 15.4
32 | O=C(CNC(=O)c1ccccc1Br)N/N=C\c1cc([N+](=O)[O-])cc(Br)c1O | 10.2
33 | CC(C)CN(C(=O)CN1CCN(c2ccc(F)cc2)CC1)c1c(N)n(CC(C)C)c(=O)[nH]c1=O | 9.55
34 | CC(C)c1nc2cc(C(=O)N3CCN(c4cnccn4)CC3)ccc2o1 | 6.86
35 | Cc1c2cnn(CC(=O)Nc3c(F)c(F)cc(F)c3F)c(=O)c2c(C)n1Cc1ccccc1F | 6.47
36 | O=C(Nc1ccc(F)cc1)c1nc[nH]c1C(=O)Nc1ccc([N+](=O)[O-])cc1 | 15.8
37 | CCOC(=O)c1c(C)n(C)c2ccc(OCC(O)CNC(CC)CO)cc12 (centres unmarked) | -6.21
38 | N#Cc1c(-c2ccncc2)cc(-c2ccc(F)cc2)nc1N | 12.3

Row | Compound | hERG current change (%, negative = inhibition) at 1uM [%]
39 | O=C(OCC(=O)N(C1CCCCC1)C1CCCCC1)c1ccncc1 | -0.498
40 | Cn1cc(/C=C(\NC(=O)c2ccccc2)C(=O)NCCN2CCOCC2)c2ccccc21 | 18.3
41 | COc1ccc(-c2nnc(SC(C)C(=O)Nc3cccc(Cl)c3)o2)cc1 (centres unmarked) | 7.51
42 | NC(=O)c1ccccc1N/C=C/C(=O)c1ccccc1 | 13.6
43 | O=S(=O)(Nc1ccc(Cl)cc1)c1cccc2cccnc12 | 11.5
44 | Cc1ccc(-c2cc(C(=O)NCc3ccco3)c3ccccc3n2)s1 | 7.12
45 | COc1cccc(/C=N/n2c(=S)n(C)c3ccccc32)c1OC | 1.69
46 | Cc1cc(C)nc(NC(=O)c2csnn2)c1 | 16.3
47 | COc1ccc(NC(=S)N2CCC(c3nc4ccccc4[nH]3)CC2)c(OC)c1 | 9.6
48 | Cc1c(NC(=O)COC(=O)Cn2cc(C(F)(F)F)ccc2=O)cccc1[N+](=O)[O-] | 4.72
49 | O=C(Cn1c(=O)n(-c2cccc(C(F)(F)F)c2)c(=O)c2sccc21)NCC1CCCO1 (centres unmarked) | 14.8
50 | C/C(=N\NC(=O)CNC(=O)C(c1ccccc1)c1ccccc1)c1ccc(C)cc1 | -2.57
51 | CCOC(=O)c1c(/N=C/C2=C(O)CCCC2=O)sc(C)c1C | 1.06
52 | COc1ccc(C2C(C(=O)c3ccco3)=C(O)C(=O)N2c2nnc(C)s2)cc1 (centres unmarked) | 4.17
53 | C=CCNc1nc(-c2ccc(O)c(C(N)=O)c2)cs1.Cl | 6.17
54 | CC(=O)N1N=C(c2c(-c3ccccc3)c3cc(Br)ccc3[nH]c2=O)CC1c1ccco1 (centres unmarked) | 7.81
55 | Cn1c(-c2ccccc2)cc(=O)c2ccccc21 | 5.87
56 | COC(=O)c1ccsc1-n1cc(C#N)c(=O)n(C)c1=O | 6.35
